This note sets out measurements from the supplement of paper PMC4723716.

Values joined by “and” are separate entries in the source; they are usually repeats but may differ in a detail not shown here. Equal entries are not always repeated. ± gives the uncertainty stated by the source. Over roughly 9,900 compounds, “viability index relative to DMSO control” has its median near 1; the lowest 2% begin near 0.85. Some of the results follow.

The subject of the experiment is Plasmodium falciparum NF54 stage V gametocytes. Nature of the experiment: viability index relative to DMSO control (fraction); higher = less gametocyte killing. The following applies: 2.5 µM, incubation time: 72 h. Summed up:
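P. falciparum NF54 stage V gametocytes in serum-free screening medium (0.75% gametocytemia, 1.25% hematocrit, 10 µl) were incubated with compound at 2.5 µM in 1,536-well plates for 72 hr at 37°C under low oxygen. Then 3 µl of 2.5 µM MitoTracker Red CMXRos plus 0.13% saponin was added for one to two hours. One field per well was imaged, 20–70 µm2 red particles were counted, and the viability index was the count divided by the plate mean of DMSO wells.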

Where [1] appears, read: library set: Broad Institute DOS.

Regarding `COc1ccccc1-c1ccc([C@@H]2[C@@H]3CN(C(=O)c4ccncc4)C[C@H]2N3)cc1`, the viability index under setting [1] came out at 0.991 ± 0.048.
Same read-out and setting: the same measure for `CC(C)NC(=O)NCC[C@H]1CC[C@@H](NS(=O)(=O)c2ccc(Oc3ccccc3)cc2)[C@H](CO)O1`: 1.1 ± 0.06; for `COc1ccc(-c2ccc([C@@H]3[C@@H]4CN(C(=O)c5ccc(F)cc5)C[C@H]3N4)cc2)cc1`: 0.987 ± 0.082.
Still for that read-out and setting: for `COc1ccccc1S(=O)(=O)N[C@H]1C=C[C@H](CC(=O)N2CCOCC2)O[C@@H]1CO` the value was 1.12 ± 0.23; for `C[C@H](CO)N1C[C@H](C)[C@@H](CN(C)S(=O)(=O)c2ccc(Cl)cc2)Oc2ccc(NS(=O)(=O)c3cccs3)cc2C1=O`, 1.03 ± 0.035; for `CCCNC(=O)N1CC(=O)N2[C@H](C1)[C@H](c1ccc(C#CCC3CCCC3)cc1)[C@@H]2CO`, 1.02 ± 0.092.
As to `C[C@@H]1CN([C@@H](C)CO)C(=O)c2cc(NC(=O)Nc3cccc4ccccc34)ccc2O[C@H]1CN(C)S(=O)(=O)c1cccs1`, the viability index under setting [1] amounted to 1.093 ± 0.0039.
The compound `CN1CCCCN2[C@H](CO)[C@H](c3ccc(-c4ccc(F)cc4)cc3)[C@H]2C1` gave a viability index under setting [1] of 1.05 ± 0.034.
Same read-out and setting: for `CNC[C@@H]1Oc2cc(C#Cc3ccccc3OC)ccc2S(=O)(=O)N([C@H](C)CO)C[C@H]1C` the value was 0.897 ± 0.03.
With `C[C@@H](NC(=O)C[C@H]1CC[C@H]2[C@H](COc3ccc(NS(=O)(=O)c4ccc(Cl)cc4)cc3C(=O)N2C)O1)c1ccccc1`, the viability index under setting [1] was 0.984 ± 0.018.
The compound `CC(=O)N1[C@H](CO)[C@@H](c2ccccc2)[C@@H]1CN(CC(C)C)C(=O)c1ccccn1` had a viability index under setting [1] of 0.952 ± 0.074.
On the same count and under the same terms, the same measure for `CC(C)NC(=O)Nc1cccc2c1O[C@@H](CN(C)C(=O)Nc1ccccc1)[C@H](C)CN([C@H](C)CO)C2=O`: 1.05 ± 0.17; for `COc1ccc2c3c([nH]c2c1)[C@H](CO)N(C[C@]31CN(C)C1)C(=O)c1ccncc1`: 1.04 ± 0.046; for `COCC(=O)N(C)C[C@H]1[C@H](c2ccccc2)[C@@H](CO)N1C(=O)Cc1ccncc1`: 1.02 ± 0.062.
Still for that read-out and setting: the same measure for `O=C(Cc1ccncc1)N1C[C@@H]2N[C@H](C1)[C@H]2c1ccc(/C=C/c2ccccc2)cc1`: 1.07 ± 0.1; for `OC[C@H]1[C@H](c2ccc(C#CC3(O)CCCC3)cc2)[C@H]2CN(Cc3cncnc3)CCCCN21`: 1.11 ± 0.036; for `CCCNC(=O)Nc1ccc2c(c1)C(=O)N(C)[C@H]1CC[C@H](CC(=O)Nc3ccc4c(c3)CCCC4)O[C@@H]1CO2`: 1.05 ± 0.033.
The same measure, in the same setting: the same measure for `COc1ccc2c3c([nH]c2c1)[C@H](CO)N(C)C[C@]31CCN(CC1)S(=O)(=O)c1ccc(C)cc1`: 1.04 ± 0.03; for `CO[C@H]1CN(C)C(=O)c2cccc(C#N)c2OCC[C@H]2CC[C@@H](OC)[C@@H](CN(C)C(=O)[C@@H]1C)O2`: 1.08 ± 0.017.
With `C[C@@H]1CCCn2cc(nn2)COCCNC1=O`, the viability index under setting [1] came to 0.994 ± 0.094.
On the same count and under the same terms, for `Cc1nn(C)cc1NC(=O)C[C@@H]1CC[C@H]2[C@H](COc3ccc(NC(=O)c4cccc(F)c4)cc3C(=O)N2C)O1` the value was 1.02 ± 0.02.
The same measure, in the same setting: the same measure for `CCc1cnc(N2[C@H](C#N)[C@@H](c3ccc(-c4cccc(F)c4)cc3)[C@@H]2CO)s1`: 1.12 ± 0.11; for `CNC[C@H]1Oc2ccc(NS(=O)(=O)c3ccc(OC)cc3)cc2C(=O)N([C@H](C)CO)C[C@H]1C`: 1.01 ± 0.079.
On the same count and under the same terms, for `Fc1ccc(F)c(CN2[C@@H]3CNC[C@H]2[C@H]3c2ccc(-c3ccncc3)cc2)c1` the value was 1.13 ± 0.031.
In the case of `O=C(C[C@@H]1C[C@H]2c3cc(NC(=O)C4CCOCC4)ccc3O[C@H]2[C@@H](CO)O1)NCCN1CCCCC1`, the viability index under setting [1] was determined as 1.09 ± 0.03.
The compound `CO[C@@H]1CN(C)C(=O)c2ccc(NC(=O)Nc3ccccc3)cc2OC[C@@H](C)N(C(=O)CC2CC2)C[C@@H]1C` gave a viability index under setting [1] of 1.09 ± 0.083.
On the same count and under the same terms, the same measure for `C[C@@H](NC(=O)C[C@@H]1CC[C@H]2[C@H](COc3ccc(NS(=O)(=O)c4ccc(Cl)cc4)cc3C(=O)N2C)O1)c1ccccc1`: 0.991 ± 0.048; for `CO[C@@H]1CN(C)C(=O)c2cc(NC(=O)c3ccc4c(c3)OCO4)ccc2OC[C@@H](C)N(CCC(F)(F)F)C[C@H]1C`: 1.13 ± 0.11; for `CO[C@@H]1CN(C)C(=O)c2cc(NC(=O)C3CCOCC3)ccc2OC[C@H](C)NC[C@H]1C`: 1.04 ± 0.015.
On the same count and under the same terms, the same measure for `O=C(C[C@@H]1C[C@H]2c3cc(NC(=O)C4CCC4)ccc3O[C@H]2[C@@H](CO)O1)NC1CCCC1`: 1.04 ± 0.021.
On to `COC(=O)C[C@H]1C[C@@H]2c3cc(NC(=O)C4CCOCC4)ccc3O[C@@H]2[C@@H](CO)O1`, for which, under setting [1], the viability index turned out to be 1.08 ± 0.066.
As to `C[C@@H]1CCCCO[C@H](CN(C)S(=O)(=O)c2cn(C)cn2)[C@@H](C)CN([C@H](C)CO)C(=O)c2cc(N(C)C)ccc2O1`, the viability index under setting [1] was found to be 1.053 ± 0.01.
The same measure, in the same setting: the same measure for `O=C(C[C@H]1CC[C@@H]2NC[C@H](O)COC[C@H]2O1)NCCc1ccncc1`: 1.035 ± 0.006; for `COc1ccc(S(=O)(=O)Nc2ccc3c(c2)C(=O)N([C@@H](C)CO)C[C@@H](C)[C@H](CN(C)C(=O)Nc2c(C)noc2C)OCCCC[C@H](C)O3)cc1`: 1.08 ± 0.031; for `COc1ccc(NC(=O)N(C)C[C@H]2OCCCC[C@@H](C)Oc3ccc(NC(=O)c4ccncc4)cc3C(=O)N([C@H](C)CO)C[C@H]2C)cc1`: 1.09 ± 0.031.
The same measure, in the same setting: for `COc1cccc(C#Cc2ccc3c(c2)O[C@H](CN(C)C(=O)CN2CCOCC2)[C@@H](C)CN([C@H](C)CO)S3(=O)=O)c1` the value was 1.03 ± 0.013; for `O=C(NC1CCC1)[C@H]1[C@H](CO)[C@H]2Cn3c(ccc(-c4ccncc4)c3=O)[C@@H]1N2Cc1cocn1`, 1.04 ± 0.018.
The same measure, in the same setting: for `CN(C)C(=O)c1ccc(-c2ccc([C@@H]3[C@@H]4CN(C(=O)C5CC5)C[C@H]3N4)cc2)cc1` the value was 1.12 ± 0.087.
As to `C[C@H]1CN([C@@H](C)CO)C(=O)c2cccc(NC(=O)NC3CCCCC3)c2O[C@H]1CN(C)Cc1ccc(C(F)(F)F)cc1`, under setting [1], the viability index worked out at 0.995 ± 0.028.
The same measure, in the same setting: the same measure for `CCC(=O)N1[C@H](C#N)[C@H](c2ccccc2-c2ccccc2)[C@H]1CO`: 1.07 ± 0.03; for `C[C@@H]1CN([C@@H](C)CO)C(=O)c2ccccc2-c2ccccc2CO[C@@H]1CN(C)Cc1ccccc1C(F)(F)F`: 0.8276 ± 0.0015.
Same read-out and setting: for `CCCC#Cc1ccc([C@H]2[C@@H](CO)N3C(=O)CN(C(=O)Nc4cccc(F)c4)C[C@H]23)cc1` the value was 1.04 ± 0.043; for `N#Cc1cccc(-c2ccc([C@@H]3[C@@H]4CN(C(=O)Cc5ccncc5)C[C@H]3N4)cc2)c1`, 1.04 ± 0.013; for `O=C(O)C[C@H]1C[C@@H]2c3cc(NC(=O)Cc4ccncc4)ccc3O[C@@H]2[C@@H](CO)O1`, 1.09 ± 0.017.
Same read-out and setting: for `Cc1ccc(S(=O)(=O)NCC[C@@H]2CC[C@H](NC(=O)c3cccnc3)[C@H](CO)O2)cc1` the value was 1.12 ± 0.061; for `COc1cccc(NC(=O)Nc2ccc3c(c2)C(=O)N(C)C[C@H](OC)[C@@H](C)CN(CC2CC2)[C@H](C)CO3)c1`, 0.971 ± 0.042; for `Cc1noc(C)c1S(=O)(=O)Nc1ccc2c(c1)CC(=O)N([C@@H](C)CO)C[C@H](C)[C@@H](CN(C)Cc1ccc(Oc3ccccc3)cc1)O2`, 1 ± 0.071.
`O=C(C[C@@H]1CC[C@H]2[C@@H](COC[C@H](O)CN2S(=O)(=O)c2ccc(F)cc2)O1)NCCN1CCCCC1` showed a viability index under setting [1] of 1.08 ± 0.023.
The same measure, in the same setting: for `COCC(=O)Nc1ccc2c(c1)[C@@H]1C[C@H](CC(=O)NCc3ccc4c(c3)OCO4)O[C@@H](CO)[C@@H]1O2` the value was 1.09 ± 0.036; for `O=C(C[C@@H]1CC[C@H]2[C@@H](COC[C@H](O)CN2Cc2nccs2)O1)N1CCC(Cc2ccccc2)CC1`, 1.13 ± 0.023; for `COCC(=O)N1[C@H](C#N)[C@H](c2ccccc2-c2cccc(C)c2)[C@H]1CO`, 1.15 ± 0.053.
The same measure, in the same setting: for `Cc1noc(C)c1NC(=O)Nc1ccc2c(c1)C(=O)N([C@@H](C)CO)C[C@@H](C)[C@H](CN(C)Cc1ccc3c(c1)OCO3)OCCCC[C@H](C)O2` the value was 1.17 ± 0.11; for `COc1cccc(CNC(=O)C[C@H]2CC[C@H]3[C@H](COc4ccc(NS(=O)(=O)c5ccccc5F)cc4C(=O)N3C)O2)c1`, 1.1 ± 0.067; for `O=C(Nc1ccc(Cl)cc1)N1[C@@H]2CNC[C@H]1[C@@H]2c1ccc(-c2ccccc2)cc1`, 1.06 ± 0.05.
The same measure, in the same setting: for `CN1C(=O)c2cc(NC(=O)c3cccc(F)c3)ccc2OC[C@H]2O[C@H](CC(=O)NCC3CCCCC3)CC[C@@H]21` the value was 1.02 and 1.15; for `O=C(c1ccccc1F)N1C[C@@H]2[C@H](c3ccccc31)[C@H](CO)N2C(=O)Nc1ccccc1`, 0.853 ± 0.022.
As for `N#C[C@@H]1[C@H](c2ccccc2-c2ccccc2F)[C@@H](CO)N1C(=O)C1CCC1`, the viability index under setting [1] came to 1.1 ± 0.019.
For `COc1ccccc1-c1ccc([C@@H]2[C@@H](C#N)N(C(=O)NC3CCCCC3)[C@@H]2CO)cc1`, the viability index under setting [1] worked out at 1.05 ± 0.099.
Still for that read-out and setting: for `O=C(C[C@H]1C[C@@H]2c3cc(NC(=O)c4ccc5c(c4)OCO5)ccc3O[C@@H]2[C@H](CO)O1)NCc1ccc(Oc2ccccc2)cc1` the value was 1.12 ± 0.039; for `COc1ccc2c3c([C@H](CO)N(CC4CCOCC4)C[C@]33CCN(CC3)C(=O)CN(C)C)n(C)c2c1`, 1 ± 0.073.
The compound `C[C@@H]1CN([C@@H](C)CO)C(=O)c2c(c3ccccc3n2C)-c2ccccc2CO[C@H]1CN(C)C(=O)Nc1ccc2c(c1)OCO2` gave a viability index under setting [1] of 0.888 ± 0.042.
On the same count and under the same terms, the same measure for `C[C@H]1CC(=O)N[C@H](c2ccccc2)C/C=C\C[C@@H](c2ccc3c(c2)OCO3)NC1=O`: 1.05 ± 0.018; for `CN1C(=O)c2cc(NS(=O)(=O)c3ccccc3F)ccc2OC[C@@H]2O[C@H](CC(=O)NC3Cc4ccccc4C3)CC[C@H]21`: 0.9731 ± 0.0061; for `C[C@H](CO)N1C[C@H](C)[C@@H](CN(C)C(=O)c2cc(-c3ccccc3)on2)OCc2cnnn2CCCC1=O`: 1.04 ± 0.061.
Still for that read-out and setting: the same measure for `O=C(C1CC1)N1CC2(C1)[C@H](c1ccccc1)[C@@H](CO)N2S(=O)(=O)c1ccccc1`: 1.12 ± 0.13; for `COc1ccccc1-c1ccc([C@H]2[C@H](CO)N[C@@H]2C#N)cc1`: 1.065 ± 0.0054; for `NCC[C@@H]1CC[C@H](NC(=O)NC2CCCCC2)[C@H](CO)O1`: 0.992 ± 0.012.
Under “library set: Broad Institute Blood Stage”, `COCc1cn([C@@H]2C[C@@H]3O[C@@H](CO)CC[C@@H]3O[C@@H]2CCc2ccc(-c3ccc(OC)cc3)cc2)nn1` yielded a viability index of 0.811 ± 0.063.
For the compound `COc1cccc(S(=O)(=O)N2[C@@H]3CNC[C@H]2[C@H]3c2ccc(/C=C/c3ccccc3)cc2)c1`, the viability index under setting [1] was 1.07 ± 0.047.
On the same count and under the same terms, for `CN1CCN(C(=O)C[C@@H]2CC[C@@H]3[C@H](COC[C@H](O)CN3C(=O)c3ccccc3F)O2)CC1` the value was 1.12 ± 0.044.
